Here are results for 47 compounds from the supplement of paper PMC8183993.

Counter-ions that a name gives are not always drawn. ± gives the standard deviation of the averaged measurements. The full ranking holds about 3,100 compounds; the median of “mean cytoplasmic OPP incorporation (global translation) relative to DMSO” is about 100, and the lowest 2% start at about 56. The list shows a part of the results.

This experiment deals with U2OS. Nature of the experiment: mean cytoplasmic OPP incorporation (global translation) relative to DMSO (% of DMSO); higher = more protein synthesis. Conditions: 10 µM; 24 h. The method, then:
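Primary image-based screen in U2OS cells: compounds at 10 uM for 24 h, then a 1 h o-propargyl-puromycin (OPP) pulse, click labelling, and high-throughput microscopy. Mean cytoplasmic OPP intensity and nuclei count were normalised to DMSO wells within each plate (DMSO = 100) and averaged over triplicate plates.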
On to `CN1CC(=O)NC1=N` [Creatinine], for which the “mean cytoplasmic OPP incorporation” value worked out at 102.
Under `CC(=O)Nc1ccc(NC(=S)NC(=O)c2ccc(C(C)(C)C)cc2)cc1` [Tenovin-1] stands 76.3; under `O=c1cc(-c2ccc(O)c(O)c2)oc2cc(O)cc(O)c12` [Luteolin], 92; under `CCOC(=O)[C@]12CC1/C(=N\O)c1ccccc1O2` (some centres not stated), 95.4.
The result for `CN1CCN(C2=Cc3ccccc3Oc3ccc(Cl)cc32)CC1` reads 106.
Under `C[C@H](NC(=O)[C@@H](O)c1cc(F)cc(F)c1)C(=O)N[C@@H]1C(=O)N(C)c2ccccc2-c2ccccc21` stands 108; under `CN1C2=CC(=O)/C(=N\NC(N)=O)C=C2CC1S(=O)(=O)O` (configuration not stated) [Carbazochrome sodium sulfonate], 116; under `CSCC[C@H](NC=O)C(=O)N[C@@H](CC(=O)O)C(=O)NCC(=O)N[C@@H](CS)C(=O)N[C@@H](CCC(=O)O)C(=O)N[C@@H](CC(C)C)C(=O)O`, 103.
As to `CCC(Cc1c(I)cc(I)c(N)c1I)C(=O)O` (configuration not stated) [Iopanoic acid], the “mean cytoplasmic OPP incorporation” value was found to be 107.
The result for `CCC(NC(C)C)C(O)c1ccc(O)c(O)c1` (configuration not stated) [Isoetharine mesylate salt] reads 97.6; that for `CN1CCc2cccc3c2[C@H]1Cc1ccc(O)c(O)c1-3` [(R)-(-)-Apomorphine hydrochloride], 100; that for `CN1CCc2cccc3c2[C@H]1Cc1ccc(O)c(O)c1-3` [R(-) Apomorphine hydrochloride hemihydrate], 102.
Under `CC(=O)OCCNC(=O)c1cccnc1` [N-[2-(Acetoxy)ethyl]-3-pyridinecarboxamide] stands 98.6.
For the compound `CNC(CC(=O)O)C(=O)O` [NMDA (N-Methyl-D-aspartic acid)], the “mean cytoplasmic OPP incorporation” value amounted to 93.1.
Under `O=c1cc(N2CCOCC2)oc2c1ccc1ccccc12` stands 96.7; under `CCOC(=O)C(C)(C)Oc1ccc(Cl)cc1` [Clofibrate], 93.
As for `CC(C)NC[C@H](O)COc1ccc(CC(N)=O)cc1` [S-(-)-Atenolol], the “mean cytoplasmic OPP incorporation” value came out at 100.
Under `CC(C)NC[C@H](O)COc1ccc(CC(N)=O)cc1` [(S)-(-)-Atenolol] stands 104.
`CO[C@@]1(NC(=O)CSCC#N)C(=O)N2C(C(=O)O)=C(CSc3nnnn3C)CS[C@@H]21` [Cefmetazole sodium salt]: the “mean cytoplasmic OPP incorporation” value came out at 105.
Take `COc1ccc2[nH]c(I)c(CCNC(C)=O)c2c1` [2-Iodomelatonin]: the “mean cytoplasmic OPP incorporation” value came out at 99.4.
In the case of `C[C@@H]1[C@H](O)[C@@H](C)/C=C/C=C/C=C/C=C/C=C/C=C/C=C/[C@H](O[C@@H]2O[C@H](C)[C@@H](O)[C@H](N)[C@@H]2O)C[C@@H]2O[C@](O)(C[C@@H](O)C[C@@H](O)[C@H](O)CC[C@@H](O)C[C@@H](O)CC(=O)O[C@H]1C)C[C@H](O)[C@H]2C(=O)O` [Amphotericin B], the “mean cytoplasmic OPP incorporation” value was 98.8.
For the compound `C[C@@H]1[C@H](O)[C@@H](C)/C=C/C=C/C=C/C=C/C=C/C=C/C=C/[C@H](O[C@@H]2O[C@H](C)[C@@H](O)[C@H](N)[C@@H]2O)C[C@@H]2O[C@](O)(C[C@@H](O)C[C@@H](O)[C@H](O)CC[C@@H](O)C[C@@H](O)CC(=O)O[C@H]1C)C[C@H](O)[C@H]2C(=O)O` [Amphotericin B (Abelcet)], the “mean cytoplasmic OPP incorporation” value turned out to be 104.
The result for `CC[C@H](CC[C@@H](C)[C@H]1CC[C@H]2[C@@H]3CC=C4C[C@@H](O)CC[C@]4(C)[C@H]3CC[C@]12C)C(C)C` [?-Sitosterol] reads 97.3.
Under `O=C(O)CC[C@H]1CC[C@@](c2cc(F)ccc2F)(S(=O)(=O)c2ccc(Cl)cc2)CC1` stands 107; under `C/C=C1\NC(=O)[C@H]2CSSCC/C=C/[C@H](CC(=O)N[C@H](C(C)C)C(=O)N2)OC(=O)[C@H](C(C)C)NC1=O` [Romidepsin (FK228 ,depsipeptide)], 62.7; under `COc1ccc2c(c1)N(C[C@H](C)CN(C)C)c1ccccc1S2` [Methotrimeprazine maleat salt], 105.
Under `CCCN(CCC)C(=O)C(CCC(=O)O)NC(=O)c1ccccc1` (configuration not stated) [Proglumide] stands 105; under `CCN1C(=O)NC(c2ccccc2)C1=O` (configuration not stated) [Ethotoin], 102; under `Nc1nc(N)c2nc(-c3cccc(O)c3)cnc2n1`, 88.9 ± 1.7.
As to `CN1CCC(=C2c3ccccc3CC(=O)c3sccc32)CC1` [Ketotifen fumarate], the “mean cytoplasmic OPP incorporation” value was 109 ± 9.3.
The result for `Cc1nnc(-c2ccc3occ(-c4ccc([S+](C)[O-])cc4)c3c2)o1` (configuration not stated) reads 105.
Under `CN1CCCC(CC2c3ccccc3Sc3ccccc32)C1` (configuration not stated) [Metixene hydrochloride] stands 104; under `COc1ccccc1N1CCN(CC(O)COc2cccc3ccccc23)CC1` (configuration not stated) [Naftopidil dihydrochloride], 116.
For the compound `COc1ccccc1N1CCN(CC(O)COc2cccc3ccccc23)CC1` (configuration not stated) [Naftopidil hydrochloride], the “mean cytoplasmic OPP incorporation” value worked out at 112.
The result for `CC(C)(C)C(=O)OCOP(=O)(COCCn1cnc2c(N)ncnc21)OCOC(=O)C(C)(C)C` [Adefovir Dipivoxil (Preveon, Hepsera)] reads 111.
As to `Cc1ccc(NC(=O)C(C)C)cc1C1CCN(Cc2ccc(Oc3ccc(F)c(F)c3)cc2)CC1`, the “mean cytoplasmic OPP incorporation” value came out at 108.
The result for `COc1cc(OC)c(C(=O)CCCN2CCCC2)c(OC)c1` [Buflomedil hydrochloride] reads 97.3; that for `N#CC(c1ccc(Cl)cc1)c1c(Cl)cc(-n2ncc(=O)[nH]c2=O)cc1Cl` (configuration not stated) [Diclazuril], 92.5.
Under `O=c1ccc2ccc(O)c(O)c2o1` [Daphnetin] stands 103; under `Nc1c(Br)cc(Br)cc1CN[C@H]1CC[C@H](O)CC1` [Ambroxol], 105; under `Nc1c(Br)cc(Br)cc1CN[C@H]1CC[C@H](O)CC1` [Ambroxol hydrochloride], 97 ± 9.2.
With `Cn1ccnc1S` [Methimazole], the “mean cytoplasmic OPP incorporation” value amounted to 97.7.
Take `Cn1ccnc1S` [Methimazole (Tapazole, Northyx)]: the “mean cytoplasmic OPP incorporation” value came to 98.3.
On to `CC1Nc2ccc(Cl)cc2S(=O)(=O)N1` (configuration not stated), for which the “mean cytoplasmic OPP incorporation” value came out at 101.
Under `Nc1ccc(-c2nc3ccc(-c4nc5ccc(N)cc5[nH]4)cc3[nH]2)cc1` stands 96.5; under `C=CC(=O)Nc1cccc(Nc2nc(Nc3ccc(N4CCN(C(C)=O)CC4)cc3OC)ncc2C(F)(F)F)c1`, 95.1.
Under `CS(=O)(=O)CCNCc1ccc(-c2ccc3ncnc(Nc4ccc(OCc5cccc(F)c5)c(Cl)c4)c3c2)o1` [Lapatinib Ditosylate (Tykerb)] stands 118.
